Reference: the supplement of paper PMC8512760
Structures can show the parent of a compound that is named as a salt. The list shows a part of the results. Repeats are few or missing, and single values can be far off.

tested on: HCC-1143; experiment: cell viability relative to vehicle (% of vehicle); basal-like triple-negative breast cancer lines; higher = less cytotoxic; conditions: 10 µM; 72 h
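Also: stably firefly luciferase-GFP labeled cells in 96-well plates, viability read as luciferase photon flux after d-luciferin addition, treated wells normalized to vehicle wells, single-dose high-throughput screen.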

Row | SMILES | cell viability
1 | CN(C)CCC=C1c2ccccc2Sc2ccc(Cl)cc21 [Chlorprothixene] | 81.3
2 | Cc1ccccc1C(OCCN(C)C)c1ccccc1.O=C(O)CC(O)(CC(=O)O)C(=O)O (stereo not given) [Orphenadrine Citrate] | 85
3 | CS(=O)(=O)c1ccc(C(=O)Nc2ccc(Cl)c(-c3ccccn3)c2)c(Cl)c1 [GDC-0449 (Vismodegib)] | 96.7
4 | CCN(CC)CCOC(=O)c1ccc(N)cc1 [Procaine] | 72.7
5 | CS(=O)(=O)O.N#CC1(c2ccc(NC(=O)c3cccnc3NCc3ccncc3)cc2)CCCC1 [Apatinib] | 92
6 | OCC1OC(Oc2ccc(O)cc2)C(O)C(O)C1O (stereo not given) [Arbutin] | 81.6
7 | O=C1NC(=O)[C@@H](c2c[nH]c3ccccc23)[C@H]1c1cn2c3c(cccc13)CCC2 [Tivantinib (ARQ 197)] | 50.7
8 | OCC1OC(c2ccc(Cl)c(Cc3ccc(OC4CCOC4)cc3)c2)C(O)C(O)C1O (stereo not given) | 78.1
9 | Cl.O=C1Cc2cc(CCN3CCN(c4nsc5ccccc45)CC3)c(Cl)cc2N1 [Ziprasidone HCl] | 103
10 | COc1cc(NC(C)CCCN)c2ncccc2c1.O=P(O)(O)O.O=P(O)(O)O (stereo not given) [Primaquine Diphosphate] | 73.2
11 | Nc1cc(C(Cl)=C(Cl)Cl)c(S(N)(=O)=O)cc1S(N)(=O)=O [Clorsulon] | 69.3
12 | COC(=O)C1=C(C)NC(C)=C(C(=O)OC)C1c1ccccc1[N+](=O)[O-] [Nifedipine] | 78.1
13 | O=NN(CCCl)C(=O)NCCCl [Carmustine] | 135
14 | Cn1c(=O)c2[nH]cnc2n(C)c1=O [Theophylline] | 74.2
15 | CCC1=CC2CN(C1)Cc1c([nH]c3ccccc13)C(C(=O)OC)(c1cc3c(cc1OC)N(C)C1C(O)(C(=O)OC)C(OC(C)=O)C4(CC)C=CCN5CCC31C54)C2 (stereo not given) [Vinorelbine] | 62.8
16 | CCCNC1CCc2nc(N)sc2C1 (stereo not given) [Pramipexole] | 91.6
17 | CCCCC(=O)OC1CCC2C3CCc4cc(O)ccc4C3CCC12C (stereo not given) [Estradiol valerate] | 77.1
18 | Nc1nc(N)c2nc(-c3ccccc3)c(N)nc2n1 [Triamterene] | 61.6
19 | Cc1ccsc1C(=CCCN1CCC[C@@H](C(=O)O)C1)c1sccc1C [Tiagabine hydrochloride] | 71.2
20 | Cc1ccc(S(=O)(=O)NC(=O)NN2CC3CCCC3C2)cc1 (stereo not given) [Gliclazide] | 148

Row | SMILES | cell viability
21 | O=C(O)COCCN1CCN(C(c2ccccc2)c2ccc(Cl)cc2)CC1 (stereo not given) [Cetirizine] | 79.5
22 | CC1(C)SC2C(NC(=O)C(NC(=O)N3CCN(S(C)(=O)=O)C3=O)c3ccccc3)C(=O)N2C1C(=O)O.[Na] (stereo not given) [Mezlocillin Sodium] | 71.3
23 | Nc1nc(=O)c2ncn(CCC(CO)CO)c2[nH]1 [Penciclovir] | 93.6
24 | O=C(CCCCCCC(=O)Nc1ccccc1)NO [Vorinostat (SAHA, MK0683)] | 58.8
25 | CC1C=CC=CC=CC=CC=CC=CC=CC(OC2OC(C)C(O)C(N)C2O)CC2OC(O)(CC(O)CC(O)C(O)CCC(O)CC(O)CC(=O)OC(C)C(C)C1O)CC(O)C2C(=O)O (stereo not given) [Amphotericin B] | 69.6
26 | CC(C)OC(=O)OCOP(=O)(COC(C)Cn1cnc2c(N)ncnc21)OCOC(=O)OC(C)C.O=C(O)C=CC(=O)O (stereo not given) [Tenofovir Disoproxil Fumarate] | 80.9
27 | O=C(O)CCNC(=O)c1ccccc1 [Betamipron] | 84.8
28 | NC(N)=NS(=O)(=O)c1ccc(N)cc1 [Sulfaguanidine] | 68.3
29 | CC(C)(C)NC(=O)C1CCC2C3CCC4NC(=O)C=CC4(C)C3CCC12C (stereo not given) [Finasteride] | 80.9
30 | COc1ccc(C=Cc2cc(OC)c(OC)c(OC)c2)cc1OP(=O)([O-])[O-].[Na+].[Na+] [Fosbretabulin (Combretastatin A4 Phosphate (CA4P)) Disodium] | 58.8
31 | CCCN1CCCCC1C(=O)Nc1c(C)cccc1C.Cl (stereo not given) [Ropivacaine HCl] | 73.1
32 | CS(=O)(=O)OCCCCOS(C)(=O)=O [Busulfan] | 74.5
33 | CC(O)C1C(=O)N2C(C(=O)OCOC(=O)C(C)(C)C)=C(SC3CN(C4=NCCS4)C3)C(C)C12 (stereo not given) [Tebipenempivoxil] | 78.6
34 | COc1ccc2c(c1)c(CC(=O)O)c(C)n2C(=O)c1ccc(Cl)cc1 [Indomethacin] | 81.7
35 | CCCCCN(C)CCC(O)(P(=O)([O-])O)P(=O)(O)O.O.[Na+] [Ibandronate sodium] | 68.2
36 | Cc1ccc(NC(=O)c2ccc(CN3CCN(C)CC3)cc2)cc1Nc1nc(-c2cccnc2)cs1 [Masitinib (AB1010)] | 79.9
37 | Cl.Nc1ccn(C2OC(CO)C(O)C2O)c(=O)n1 (stereo not given) [Cytarabine hydrochloride] | 75.2
38 | CNCC(O)c1ccc(O)c(O)c1.Cl (stereo not given) [Epinephrine HCl] | 83.1
39 | CCOc1cc(N)c(Cl)cc1C(=O)NCC1CN(Cc2ccc(F)cc2)CCO1.O=C(O)CC(O)(CC(=O)O)C(=O)O (stereo not given) [Mosapride Citrate] | 73.1
40 | Cc1cccc(Nc2ccncc2S(=O)(=O)NC(=O)NC(C)C)c1 [Torsemide] | 147
